Experimental data: article PMC4336329 (PLoS ONE, 2015)
Among all 310,000 compounds or so, about 14,000 (4.5%) showed an effect of 50% or more. The effect is printed as a negative number. The list shows a part of the results.

What follows are molecules tested against human ether-à-go-go-related gene (hERG) potassium channel (human, UniProt Q12809) (assay: primary screen, population patch clamp on CHO cells stably expressing hERG).
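Also: peak tail current of the secondary pulse compared with the same well before compound.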

Sequence of human ether-à-go-go-related gene (hERG) potassium channel (Q12809 whole entry, looked up): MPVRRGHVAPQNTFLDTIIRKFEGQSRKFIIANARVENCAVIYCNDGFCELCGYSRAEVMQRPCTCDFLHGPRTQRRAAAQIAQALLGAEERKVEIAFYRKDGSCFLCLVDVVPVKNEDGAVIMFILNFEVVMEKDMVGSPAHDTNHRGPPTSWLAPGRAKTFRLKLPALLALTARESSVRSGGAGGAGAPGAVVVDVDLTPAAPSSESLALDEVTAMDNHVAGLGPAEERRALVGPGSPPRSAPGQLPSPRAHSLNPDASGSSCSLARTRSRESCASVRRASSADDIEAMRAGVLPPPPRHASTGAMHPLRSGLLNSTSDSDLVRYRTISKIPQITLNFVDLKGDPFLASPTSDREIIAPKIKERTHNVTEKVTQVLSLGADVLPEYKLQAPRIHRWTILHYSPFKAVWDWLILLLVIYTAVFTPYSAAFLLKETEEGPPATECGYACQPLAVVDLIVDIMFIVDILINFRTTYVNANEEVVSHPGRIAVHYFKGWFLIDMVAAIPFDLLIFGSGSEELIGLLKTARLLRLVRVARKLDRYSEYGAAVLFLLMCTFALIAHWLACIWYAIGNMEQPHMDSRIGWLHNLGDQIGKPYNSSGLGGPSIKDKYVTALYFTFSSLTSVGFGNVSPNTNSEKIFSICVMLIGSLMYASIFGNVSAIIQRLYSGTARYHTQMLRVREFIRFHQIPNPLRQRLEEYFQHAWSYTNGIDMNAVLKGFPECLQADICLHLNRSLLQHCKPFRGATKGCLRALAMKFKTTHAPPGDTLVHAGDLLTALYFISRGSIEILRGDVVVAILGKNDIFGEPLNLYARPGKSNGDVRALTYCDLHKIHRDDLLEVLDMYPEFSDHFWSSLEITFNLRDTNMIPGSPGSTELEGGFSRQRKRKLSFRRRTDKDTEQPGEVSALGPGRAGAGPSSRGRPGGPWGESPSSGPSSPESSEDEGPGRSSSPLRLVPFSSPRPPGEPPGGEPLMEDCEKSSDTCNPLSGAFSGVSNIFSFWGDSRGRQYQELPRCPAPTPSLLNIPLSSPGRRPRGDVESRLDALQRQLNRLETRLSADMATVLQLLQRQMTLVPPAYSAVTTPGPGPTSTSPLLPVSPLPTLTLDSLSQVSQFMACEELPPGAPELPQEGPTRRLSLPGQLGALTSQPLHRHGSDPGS

SMILES	hERG current change (%, negative = inhibition) at 10uM [%]
COc1ccc(-c2c3c(=O)n(C)c(=O)n(C)c3cn2C2CCCCC2)cc1	-43.9
Cc1nc2ncnn2c(N2CCC(C(=O)NC3CCCC3)CC2)c1Cc1ccccc1	-57.4
Cc1ccc(S(=O)(=O)Nc2cc(C)c(O)c(Sc3n[nH]c(C)n3)c2)cc1	2.79
O=C(O)CSCNC(=O)C12CC3CC(CC(C3)C1)C2	-10.4
COc1ccc(C(=O)NC(NC(=O)c2ccc(OC)cc2)c2ccccc2F)cc1	7.5
CC(=O)c1cccc(OCc2cc(C(=O)N(C)CCc3cnn(C)c3)no2)c1	5.21
O=C(NC(=S)Nc1ccc(N2CCOCC2)c(Cl)c1)C(c1ccccc1)c1ccccc1	5.35
Cc1c(C(=O)N2CCCC2)sc(NC(=O)c2cccc(Cl)c2)c1C#N	20.6
COc1ccc(COC(=O)C2=C(C)NC(=O)NC2c2cccc(OC)c2OC)cc1 (stereo not drawn)	5.25
COc1ccc2c(COC(=O)CCS(=O)(=O)c3ccccc3)cc(=O)oc2c1	2.79
N=c1c(C(=O)NCC2CCCO2)cc2c(=O)n3ccccc3nc2n1Cc1ccccc1 (stereo not drawn)	-75.3
c1ccc(CCCNCC2COc3ccccc3O2)cc1 (stereo not drawn)	-15
CC1C(=O)N2CCCc3cc(NS(=O)(=O)c4ccc([N+](=O)[O-])cc4)cc1c32 (stereo not drawn)	-16.2
Cc1ccccc1S(=O)(=O)NCc1ccc(N2CCN(C)CC2)cc1	-4.9
CCCCc1nc2cc(C(=O)N3CCC(OC)CC3)ccc2o1	-0.171
COc1ccc(Nc2nc(N)nc(CN3CCN(c4ccc(F)cc4)CC3)n2)cc1	-69.5
CCN(CC)CCNC(=O)Cc1c(C(=O)O)n(C)c2ccccc12	-2.45
O=C(NCC1CCCO1)C1CC(=O)N(c2cccc(Cl)c2)C1 (stereo not drawn)	-8.95
O=C(Nc1nnc(SCC(=O)N2CCCCC2)s1)c1ccccc1F	11.9

SMILES	hERG current change (%, negative = inhibition) at 10uM [%]
O=C(NCc1ccccc1)c1nccnc1CO	21.6
CN(Cc1ccc(F)cc1)C(=O)CNC(=O)c1ccc2c(c1)OCO2	15.2
CN1CCN(C(=O)/C(=C\c2ccccc2)c2ccccc2)CC1	-59.9
CSc1ccc(/C=C/C(=O)c2ccc(NC(=O)Cc3ccccc3)cc2)cc1	-4.59
COc1ccc(C(=O)N/C(=C\c2ccc(OC)c(OC)c2)C(=O)N2CCCCC2)cc1	6.11
Cc1ccc(NC(=O)c2ccc(=O)n(CC(=O)Nc3ccccc3)n2)cc1	21.9
Cc1cccc(NC(=O)c2ccccc2O)c1C	-7.72
COc1ccccc1OP(=O)(O)Oc1ccccc1OC	26.9
O=C(/C=C/c1cccc(Br)c1)NC1CCN(Cc2ccccc2)CC1	-71.1
C=CCNc1nc2ccccc2nc1NS(=O)(=O)c1ccc(Cl)cc1	5.94
COc1ccc(CCNC2=NCC(C)S2)cc1 (stereo not drawn)	-4.98
c1ccc(C2CC(c3cccs3)Nc3nnnn32)cc1 (stereo not drawn)	10.3
CC(C)(C)NC(=O)C(c1cccs1)N(CC1CCCO1)C(=O)c1ccc(-c2ccccc2)[nH]1 (stereo not drawn)	24
CCOP(=O)(c1ccccc1)C(O)c1ccccc1 (stereo not drawn)	21.7
COc1cc(NC(=O)CSc2nc(=O)n(CCCN3CCOCC3)c3c2CCC3)cc(OC)c1	-34.9
CCC(=O)Nc1sc2c(c1C(=O)N(C)C)CCCCC2	16.8
CC1Cc2nc(SCC(=O)NCc3ccco3)n(Cc3ccccc3)c(=O)c2S1 (stereo not drawn)	-36.9
O=C(CCCn1c(=S)[nH]c2ccccc2c1=O)NCCSCc1ccccc1	6.73
CC1CN(S(=O)(=O)c2cccc(C(F)(F)F)c2)CN1C(=O)N1CCOCC1 (stereo not drawn)	5.21

SMILES	hERG current change (%, negative = inhibition) at 10uM [%]
CC(=O)Nc1ccc(OCC(O)Cn2nc(C)nc2C)cc1 (stereo not drawn)	16.5
Cc1cc(=O)oc2cc(OCC(=O)OCC(=O)N(CCC#N)c3ccccc3)ccc12	6.04
CCO/N=C(/c1nonc1N)N1CCN(c2ccc([N+](=O)[O-])cc2)CC1	2
Cc1c(C(=O)N(C)C2CCCCC2)sc2ncnc(N3CCN(c4ccccc4)CC3)c12	-29.3
COC(=O)c1cc(NC(=O)Cn2c(=O)cnc3ccccc32)cc(C(=O)OC)c1	9.97
CC(C)(C)c1ccc(-c2n[nH]c(=S)n2Cc2ccccc2)cc1	8.37
O=C(O)C1CCN(C(=O)c2ccccc2Cl)CC1	-0.656
O=C(Nc1ccc(S(=O)(=O)NCCc2ccccc2)cc1)c1ccncc1	-10.3
Cc1nc(-c2ccccn2)nc(SCC(=O)c2ccc(F)cc2)c1Cl	-6.36
C=CCn1c(-c2ccccc2)ccc(C#N)c1=O	-7.16
Cc1cc2c(sc3c(C)ccc(C)c32)c(C)n1.Cl	3.48
NC(=O)C1CCN(Cc2nc3cc(Cl)ccc3c(=O)[nH]2)CC1	5.22
OCC1CCCN(C(=S)Nc2ccc(Nc3ccccc3)cc2)C1 (stereo not drawn)	1.17
Cc1ccccc1C(=O)NCC(c1ccco1)N1CCc2ccccc2C1 (stereo not drawn)	-22.7
CCn1c(=O)n(CC(=O)Nc2cc(OC)c(OC)c(OC)c2)c(=O)c2ccccc21	-8.9
Cc1ccc(/C=C2\SC(=S)N(C3CCS(=O)(=O)C3)C2=O)cc1 (stereo not drawn)	0.453
Cc1ccc(C(=O)NS(=O)(=O)c2ccccc2)cc1	18.2
O=C(COc1ccccc1)N1CCN(CCN2C(=O)c3cccc4cccc(c34)C2=O)CC1	-8.43
COc1cc(C(=O)OCc2cccc(S(=O)(=O)N3CCOCC3)c2)ccc1OCC(C)C	11.8
